Assay results reported in patent publication US20190345250A1, “ANTIBODY DRUG CONJUGATES” (NOVARTIS AG, priority 2013, published 2019).

Assays:
human FGFR2 IIIb = target: T1, human FGFR2 IIIb (Homo sapiens, UniProt P21802); assay: ELISA/FACS screening of panning outputs for specificity and cross-reactivity; assay type: binding; details: Uniprot Accession # P21802-3
T1 construct: residues 22-378-TAG; made in house

[1] = target: T2, IIIc isoform of human FGFR2 (Homo sapiens, UniProt P21802); assay: Biacore binding
T2 construct: residues 22-378-TAG; made in house

human FGFR2 IIIc = target: T3, human FGFR2 IIIc (Homo sapiens, UniProt P21802); assay: ELISA/FACS screening of panning outputs for specificity and cross-reactivity; assay type: binding; details: Uniprot Accession # P21802-1
T3 construct: residues 22-378-TAG; made in house

human FGFR4 = target: T4, human FGFR4 (Homo sapiens, UniProt P22455); assay: as above; assay type: binding; details: Uniprot Accession # P22455
T4 construct: domain, residues 22-369-TAG; made in house

SNU16 cells = assay: Cell proliferation assay (Cell titer Glo); assay type: cell-based
Kato-III cells = assay: Cell proliferation assay (Cell titer Glo); assay type: cell-based; details: antibody tested as MCC-DM1 ADC
[2] = antibody tested as MCC-DM1 ADC, read-out: Cell proliferation IC50, SNU16

B1: Antibody 12947 (antibody)
heavy: QVQLVQSGAEVKKPGSSVKVSCKASGGTFSSYAISWVRQAPGQGLEWMGSIQPTAGPARYAQKFQGRVTITADESTSTAYMELSSLRSEDTAVYYCARASLYSVATGSYWKVYHPFDSWGQGTLVTVSSASTKGPSVFPLAPSSKSTSGGTAALGCLVKDYFPEPVTVSWNSGALTSGVHTFPAVLQSSGLYSLSSVVTVPSSSLGTQTYICNVNHKPSNTKVDKRV[human IgG1 Fc cut from this listing]
light: DIQMTQSPSSLSASVGDRVTITCRASQDIYSYLAWYQQKPGKAPKLLIYDASSLQSGVPSRFSGSGSGTDFTLTISSLQPEDFATYYCQQADQYPVTFGQGTKVEIKRTVAAPSVFIFPPSDEQLKSGTASVVCLLNNFYPREAKVQWKVDNALQSGNSQESVTEQDSKDSTYSLSSTLTLSKADYEKHKVYACEVTHQGLSSPVTKSFNRGEC
binding to FGFR2 IIIb isoform (human FGFR2 IIIb): found to bind
binding to the IIIc isoform of human FGFR2 [1]: unable to bind

B2: Antibody 12422 (antibody)
heavy: QVQLVQSGAEVKKPGSSVKVSCKASGGTFSSYAISWVRQAPGQGLEWMGYISPYMGETHYAQKFQGRVTITADESTSTAYMELSSLRSEDTAVYYCARESYEYFDIWGQGTLVTVSSASTKGPSVFPLAPSSKSTSGGTAALGCLVKDYFPEPVTVSWNSGALTSGVHTFPAVLQSSGLYSLSSVVTVPSSSLGTQTYICNVNHKPSNTKVDKRV[human IgG1 Fc cut from this listing]
light: DIQMTQSPSSLSASVGDRVTITCRASQSISNDLAWYQQKPGKAPKLLIYATSILQSGVPSRFSGSGSGTDFTLTISSLQPEDFATYYCLQYYDYSYTFGQGTKVEIKRTVAAPSVFIFPPSDEQLKSGTASVVCLLNNFYPREAKVQWKVDNALQSGNSQESVTEQDSKDSTYSLSSTLTLSKADYEKHKVYACEVTHQGLSSPVTKSFNRGEC
binding to FGFR2 IIIb isoform (human FGFR2 IIIb): found to bind
binding to FGFR2 IIIc isoform (human FGFR2 IIIc): found to bind
binding to human FGFR4 (human FGFR4): found to bind
IC50 (SNU16 cells; [2]): < 3 nM
IC50 (SNU16 cells; antibody tested as SPDB-DM4 ADC, SNU16 cell line, read-out: Cell proliferation IC50): 0.07 nM
IC50 (Kato-III cells): < 3 nM

B3: Antibody 12439 (antibody)
heavy: QVQLVQSGAEVKKPGASVKVSCKASGYTFTSYDISWVRQAPGQGLEWMGWINPYNGGTNYAQKFQGRVTMTRDTSISTAYMELSRLRSEDTAVYYCAREGSGMIVYPGWSYAFDYWGQGTLVTVSSASTKGPSVFPLAPSSKSTSGGTAALGCLVKDYFPEPVTVSWNSGALTSGVHTFPAVLQSSGLYSLSSVVTVPSSSLGTQTYICNVNHKPSNTKVDKRV[human IgG1 Fc cut from this listing]
light: DIQMTQSPSSLSASVGDRVTITCRASQDISNDLGWYQQKPGKAPKLLIYAASSLQSGVPSRFSGSGSGTDFTLTISSLQPEDFATYYCQQHYHTPNTFGQGTKVEIKRTVAAPSVFIFPPSDEQLKSGTASVVCLLNNFYPREAKVQWKVDNALQSGNSQESVTEQDSKDSTYSLSSTLTLSKADYEKHKVYACEVTHQGLSSPVTKSFNRGEC
binding to FGFR2 IIIb isoform (human FGFR2 IIIb): found to bind
binding to FGFR2 IIIc isoform (human FGFR2 IIIc): found to bind
binding to human FGFR4 (human FGFR4): found to bind
IC50 (SNU16 cells; [2]): < 3 nM
IC50 (Kato-III cells): < 3 nM

Where two headings read alike, the source gives them in different places.
